Source: PubChem BioAssay AID624417 (National Center for Advancing Translational Sciences (NCATS), 2012)
Several values for one entry are separate records, joined by “and”; a condition that tells them apart may be missing. Equal values may be shown once. The campaign covered roughly 410,000 compounds. About 6,400 (1.6%) were called active. The shares of active, inactive and inconclusive entries below differ from those in the screen. Calls come from the whole dose curve; as a rule, active = well fitted inhibition curve with a large enough effect; inconclusive = small, poorly fitted or top-dose-only effect; inactive = no such curve, though single readings can be large or run the other way. Potencies of inconclusive entries are doubtful fits and often do not repeat.

target: Glucagon-like peptide 1 receptor (Homo sapiens) (UniProt P43220); test: qHTS of GLP-1 Receptor Inverse Agonists (Inhibition Mode); conditions: HEK293 GLP-1R CRE-luciferase, luminescence, 24 h, GLP-1R form is constitutively active; series mostly up to 38.3 µM; note: nearly all actives have a fitted effect of over 55% in size
UniProt P43220, sequence (P43220 whole entry, looked up): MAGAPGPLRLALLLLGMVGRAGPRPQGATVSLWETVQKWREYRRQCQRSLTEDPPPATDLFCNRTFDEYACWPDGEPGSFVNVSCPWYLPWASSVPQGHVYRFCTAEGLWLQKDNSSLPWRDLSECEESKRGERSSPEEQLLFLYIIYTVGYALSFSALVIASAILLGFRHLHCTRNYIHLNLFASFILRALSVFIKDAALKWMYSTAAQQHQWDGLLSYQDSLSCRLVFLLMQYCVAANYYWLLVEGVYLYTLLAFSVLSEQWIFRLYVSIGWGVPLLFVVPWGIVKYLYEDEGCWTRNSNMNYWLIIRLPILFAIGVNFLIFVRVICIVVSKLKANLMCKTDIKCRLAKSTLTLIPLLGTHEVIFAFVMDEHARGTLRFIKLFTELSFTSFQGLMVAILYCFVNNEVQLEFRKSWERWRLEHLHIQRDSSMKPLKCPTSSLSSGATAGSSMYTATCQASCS
Method in brief: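 GLP-1R inverse agonism mode: basal reporter luminescence in engineered HEK293 cells measured after one day of compound exposure at 37 deg C, with a 12 min room-temperature detection step.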
Potency is the fitted concentration of half-maximal effect; tags give direction and shape of the fitted curve.

Compound | Potency
CN(c1ccccc1)S(=O)(=O)c1ccc(NC(=S)NC(=O)c2ccccc2)cc1 | inconclusive: 17.8 µM [inhibitor, partial curve, poor fit]
O=S(=O)(/N=C(/Nc1ccc(Cl)c(S(=O)(=O)Nc2ccccc2Cl)c1)c1ccc(F)cc1)c1ccccc1 | inconclusive: 14.1 µM [inhibitor, partial curve, poor fit] and inconclusive: 11.2 µM [inhibitor, partial curve, poor fit]
O=C(Nc1nccs1)c1ccc2ccccc2c1 | inactive
O=C(Nc1cccc(C(=O)O)c1)Nc1ccccc1Cl | active: 4.47 µM
COc1ccccc1-c1nnc(Nc2nc3c(OC)cccc3s2)o1 | inconclusive: 1 µM [inhibitor, full curve]
O=C(NCc1cccs1)Nc1ccc2c(c1)OCO2 | inactive
COc1ccc(C(C)(C)C)cc1NC(=O)CCN1C(=O)NC(C)(C)C1=O | inconclusive: 28.2 µM [inhibitor, single point]
CC1(C)C(=O)N(CC(=O)Nc2ccc(Cl)cc2)c2ccccc21 | inconclusive: 10 µM [inhibitor, single point]
COc1ccc(NC(=O)c2ccc(S(=O)(=O)N3CCCCCC3)cc2)c(OC)c1 | inconclusive: 28.2 µM [inhibitor, single point]
CN1CCc2c(c3ccccc3n2C)C1 | inactive
Cc1ccnc(NC(c2ccccc2)c2ccc3cccnc3c2O)c1 (stereo not given) | inconclusive: 10 µM [inhibitor, partial curve, poor fit]
CC(CCc1ccccc1)NC(=O)CN1CCc2ccccc2C1 (stereo not given) | inconclusive: 28.2 µM [inhibitor, single point]
CCCc1c(-c2cccc(Cl)c2)ncn1Cc1cccc(-c2ccccc2)c1 | inconclusive: 10 µM [inhibitor, partial curve, poor fit]
O=C(CCC(=O)Nc1ccc(Cl)cc1Cl)N/N=C/c1ccc([N+](=O)[O-])o1 | inactive
FC(F)(F)c1cc(Oc2ccccc2)ncc1-c1nnc(-c2ccccc2Cl)o1 | inconclusive: 10 µM [inhibitor, partial curve, poor fit]
COc1ccc(C(=O)[C@H]2[C@H]3C(=O)N(c4ccc(C)cc4)C(=O)[C@H]3C3C=CC=NN32)cc1 (stereo not given in full) | inactive
Cc1ccc(CCNC(=O)C2=CCN(S(=O)(=O)c3ccccc3)CC2)cc1 | inconclusive: 8.91 µM [inhibitor, partial curve, poor fit]
COc1ccc(C)cc1S(=O)(=O)Nc1cc(Cl)ccc1Cl | active: 8.91 µM
COc1cc(C2CC(=O)Nc3c2c(=O)[nH]c2nc4ccccc4n32)ccc1O (stereo not given) | inactive
CCn1c(-c2ccccc2Cl)nn(CC(=O)Nc2cc(Cl)ccc2Cl)c1=S | inconclusive: 10 µM [inhibitor, partial curve, poor fit]
CCCc1ccc(Oc2cc(Cl)nc(N)n2)cc1 | inactive
O=[N+]([O-])c1ccc(CSc2nc3ccccc3o2)cc1 | inconclusive: 10 µM [inhibitor, single point]

Compound | Potency
CCOc1ccc(NC(=S)NC23CN4CN(CN(C4)C2)C3)cc1 | inactive
Cc1ccccc1-c1nnn(CC(=O)NC(=O)NC2CCCC2)n1 | inconclusive: 7.94 µM [inhibitor, partial curve]
Cc1ccc(OCc2nc3ccccc3[nH]2)cc1 | inconclusive: 15.8 µM [inhibitor, single point]
O=C(CSc1ncnc2scc(-c3ccccc3)c12)N1CCN(c2ccccc2F)CC1 | inconclusive: 25.1 µM [inhibitor, single point]
Cc1ccc(Cn2ccnc2C(=O)Nc2ccccc2)cc1 | inactive
Cc1ccc(C(C)C)cc1OCC(=O)NCCCn1ccnc1 | inconclusive: 1 µM [inhibitor, full curve, poor fit]
COC(=O)c1ccc(S(=O)(=O)N2CCCN(Cc3cccc(Br)c3F)CC2)n1C | inconclusive: 12.6 µM [inhibitor, single point]
CC(C)(C)[C@H]1COC(=O)[C@@H](Cc2ccc(F)cc2)CC/C=C/C[C@@H](CC(=O)N[C@@H](CO)Cc2ccccc2)C(=O)N1 | inconclusive: 11.2 µM [inhibitor, partial curve, poor fit]
Cc1ccc(-n2c(CCC(=O)O)ccc2-c2cccs2)cc1C | inactive
C/C(CCc1ccc2c(c1)OCO2)=N\N=C(/N)SC1CC(=O)N(c2ccc(Cl)cc2)C1=O (stereo not given) | inconclusive: 31.6 µM [inhibitor, single point]
CCC1CCCCN1Cc1nc(Cc2ccccc2Cl)no1 (stereo not given) | inconclusive: 11.2 µM [inhibitor, partial curve, poor fit]
Cc1sc2ncnc(N(C)Cc3cccs3)c2c1C | inconclusive: 11.2 µM [inhibitor, single point]
Cc1cc(N2CCCCC2)n2ncc(-c3ccccc3)c2n1 | inconclusive: 11.2 µM [inhibitor, partial curve, poor fit]
CCOC(=O)c1cc2c(=O)c3ccccc3oc2nc1C | inactive
Cc1cc(C(=O)COC(=O)c2cccn2C)c(C)n1Cc1ccco1 | inconclusive: 10 µM [inhibitor, partial curve, poor fit]
CCc1c(C)c2ccc3c(c2oc1=O)CN(Cc1ccccc1)CO3 | inactive
CC(C(=O)Nc1ccccc1)N(C)CCOc1ccccc1 (stereo not given) | inconclusive: 6.31 µM [inhibitor, partial curve, poor fit]
O=C(Nc1ccc2c(c1)CCC2)C1CCN(c2c3c(nc4ncnn24)CCC3)CC1 | inconclusive: 7.08 µM [inhibitor, partial curve]
CCc1ccc(S(=O)(=O)c2cn(C)c3cc(N4CCCCC4C)c(F)cc3c2=O)cc1 (stereo not given) | inconclusive: 22.4 µM [inhibitor, single point]
Cc1ccnc(NC(=O)c2ccc(Cl)c(NC(=O)C(C)Oc3ccccc3)c2)c1 (stereo not given) | inconclusive: 8.91 µM [inhibitor, partial curve, poor fit]
CCOC(=O)Cn1c(=O)oc2cc(S(=O)(=O)N3CCN(c4ccc(Cl)cc4)CC3)ccc21 | inconclusive: 10 µM [inhibitor, single point]
CCN(CC)c1ccc2c(Cl)c(Br)c(=O)oc2c1 | inconclusive: 12.6 µM [inhibitor, partial curve, poor fit]

Compound | Potency
Cc1c(C(=O)N(Cc2ccccc2)C(C)C)oc2ccc(S(=O)(=O)N3CCOCC3)cc12 | inconclusive: 10 µM [inhibitor, partial curve, poor fit]
O=C(c1ccco1)N(Cc1cccnc1)c1nc2ccc(F)cc2s1 | inactive
Cc1ccc(-c2nc(NC(=O)c3nn(C)cc3[N+](=O)[O-])sc2C)cc1C | inconclusive: 6.31 µM [inhibitor, partial curve, poor fit]
O=C(CC(CC(=O)c1ccccc1)c1ccccc1)c1ccccc1 | inconclusive: 17.8 µM [inhibitor, partial curve, poor fit]
OC(c1ccc(F)c(F)c1)c1nc(-c2cccc(F)c2)cs1 (stereo not given) | inconclusive: 28.2 µM [inhibitor, single point]
CC(NC(=O)COc1ccccc1-c1ccccc1)c1ccccc1 (stereo not given) | inconclusive: 11.2 µM [inhibitor, partial curve, poor fit]
Cc1cccc(C2=NN(c3ccccc3)[C@H](CO)[C@H]2c2ccc(F)cc2)c1 | inconclusive: 10 µM [inhibitor, partial curve, poor fit]
Cc1ccc(N(CC(=O)N2CCCCC2)S(=O)(=O)c2ccc(C)cc2)cc1 | inconclusive: 12.6 µM [inhibitor, single point]
NS(=O)(=O)c1cccc(NC(=O)CCCC2CCCCC2)c1 | inconclusive: 28.2 µM [inhibitor, single point]
CCN(CC)C(=O)c1cccc(-c2csc(C(O)c3ccc(F)c(F)c3)n2)c1 (stereo not given) | inconclusive: 14.1 µM [inhibitor, single point]
Cc1ccc(NC(=O)CSc2nn(-c3ccc(Cl)cc3)c(=S)s2)cc1S(=O)(=O)N(C)C | inconclusive: 17.8 µM [inhibitor, partial curve, poor fit]
Cc1ccc(SCC(=O)c2cc(C)c(O)c(C)c2)cc1 | inconclusive: 28.2 µM [inhibitor, single point]
CNc1ccccc1C(C)(C)c1cc(-c2ccc(F)cc2)no1 | inconclusive: 11.2 µM [inhibitor, partial curve]
Cc1cc(Cn2nc(C(=O)NCc3cccc(Br)c3)cc2-c2ccccc2)on1 | inconclusive: 10 µM [inhibitor, partial curve]
O=C(N/N=C/c1ccncc1)c1ccccc1OCc1ccc(Br)cc1 | inconclusive: 10 µM [inhibitor, partial curve, poor fit]
O=C(O)CCC(=O)NNC(=O)CCC(=O)Nc1ccccc1 | inactive
N#Cc1ccsc1NC(=O)CN1CCN(S(=O)(=O)c2ccccc2C(F)(F)F)CC1 | inconclusive: 8.91 µM [inhibitor, partial curve, poor fit]
CCOC(=O)c1nnn(-c2ccc([N+](=O)[O-])cc2[N+](=O)[O-])c1C | inactive
CC1Cc2ccccc2N1c1ncnc2nc[nH]c12 (stereo not given) | inconclusive: 28.2 µM [inhibitor, single point]
Cc1ccc(-c2csc(NC(=O)c3ccccc3F)c2C(=O)O)cc1 | inconclusive: 11.2 µM [inhibitor, partial curve, poor fit]
O=C(c1ccco1)N1CCN(Cc2ccc(Cl)cc2)CC1 | inactive
